Results reported in a collection of fitness landscapes (doi:10.1126/science.1257360).
The list shows a part of the results.

B1: PhoQ; a variant is named by its letters at X, in order, P23837 (parent)
chain: MKKLLRLFFPLSLRVRFLLATAAVVLVLSLAYGMVALIGYSVSFDKTTFRLLRGESNLFYTLAKWENNKLHVELPENIDKQSPTMTLIYDENGQLLWAQRDVPWLMKMIQPDWLKSNGFHEIEADVNDTSLLLSGDHSIQQQLQEVREDDDDAEMTHSVAVNVYPATSRMPKLTIVVVDTIPVELKSSYMVWSWFIYVLSANLLLVIPLLWVAAWWSLRPIEALAKEVRELEEHNRELLNPATTRELTSLVRNLNRLLKSERERYDKYRTTLTDLTHSLKTPLXXLQXXLRSLRSEKMSVSDAEPVMLEQISRISQQIGYYLHRASMRGGTLLSRELHPVAPLLDNLTSALNKVYQRKGVNISLDISPEISFVGEQNDFVEVMGNVLDNACKYCLEFVEISARQTDEHLYIVVEDDGPGIPLSKREVIFDRGQRVDTLRPGQGVGLAVAREITEQYEGKIVAGESMLGGARMEVIFGRQHSAPKDE

Variants of: B1
Assay: enrichment ratio after two sorts for PhoP signalling (ratio (wild type AVST 3.29)); higher = more functional
Settings: with PhoP (E. coli)

| Variant | enrichment ratio |
| --- | --- |
| NHPE | ≤ 0.25 |
| YMKI | ≤ 0.25 |
| NWLM | ≤ 0.25 |
| KCKE | ≤ 0.25 |
| KQEG | ≤ 0.25 |
| SITI | 19.7 |
| QEVN | ≤ 0.25 |
| SEIQ | 22.9 |
| YTKK | ≤ 0.25 |
| QPDW | ≤ 0.25 |
| DWMG | ≤ 0.25 |
| NADK | ≤ 0.25 |
| TGFY | 5.21 |
| SRLC | ≤ 0.25 |
| RHQD | ≤ 0.25 |
| YLRP | ≤ 0.25 |
| VMDN | ≤ 0.25 |
| LRPQ | ≤ 0.25 |
| DPTG | ≤ 0.25 |
| YRGC | ≤ 0.25 |
| RGQA | ≤ 0.25 |
| HWAM | ≤ 0.25 |
| LVRY | ≤ 0.25 |
| KTFM | ≤ 0.25 |
| LSIA | ≤ 0.25 |

| Variant | enrichment ratio |
| --- | --- |
| FWSF | ≤ 0.25 |
| RVLF | ≤ 0.25 |
| LTTK | ≤ 0.25 |
| SAYQ | ≤ 0.25 |
| GFHN | ≤ 0.25 |
| NFSC | ≤ 0.25 |
| TYPM | ≤ 0.25 |
| DKQN | ≤ 0.25 |
| IHGD | ≤ 0.25 |
| NLRV | ≤ 0.25 |
| PIYY | ≤ 0.25 |
| QPGS | ≤ 0.25 |
| SCGK | ≤ 0.25 |
| PFDK | ≤ 0.25 |
| SYNP | ≤ 0.25 |
| HQYQ | ≤ 0.25 |
| HFQA | ≤ 0.25 |
| ARVW | ≤ 0.25 |
| WEIF | ≤ 0.25 |
| VSPA | ≤ 0.25 |
| DRFI | ≤ 0.25 |
| HLFA | ≤ 0.25 |
| VSYG | ≤ 0.25 |
| WCRH | ≤ 0.25 |
| ILRI | ≤ 0.25 |

| Variant | enrichment ratio |
| --- | --- |
| VLKA | ≤ 0.25 |
| LQHG | ≤ 0.25 |
| WYAY | ≤ 0.25 |
| QHHH | ≤ 0.25 |
| GDVL | 0.987 |
| VQIK | ≤ 0.25 |
| HMMS | ≤ 0.25 |
| NALP | ≤ 0.25 |
| DGGS | ≤ 0.25 |
| HKEK | ≤ 0.25 |
| ICHS | ≤ 0.25 |
| RIEF | ≤ 0.25 |
| ERTS | ≤ 0.25 |
| FTDL | ≤ 0.25 |
| PVGG | ≤ 0.25 |
| GIYW | ≤ 0.25 |
| WGVS | ≤ 0.25 |
| DDWT | ≤ 0.25 |
| ITCK | ≤ 0.25 |
| DKVM | ≤ 0.25 |
| PSAY | ≤ 0.25 |
| KKAS | ≤ 0.25 |
| YWSV | ≤ 0.25 |
| IQDH | ≤ 0.25 |
| TVTL | 15.2 |

| Variant | enrichment ratio |
| --- | --- |
| FAMV | 7.9 |
| KIQS | ≤ 0.25 |
| IGLM | 14 |
| DYVK | ≤ 0.25 |
| WIRP | ≤ 0.25 |
| DNND | ≤ 0.25 |
| DFRP | ≤ 0.25 |
| RERR | ≤ 0.25 |
| RAAP | ≤ 0.25 |
| GNWC | ≤ 0.25 |
| SHYQ | ≤ 0.25 |
| VQPY | ≤ 0.25 |
| KPHP | ≤ 0.25 |
| PNTT | ≤ 0.25 |
| RHWM | ≤ 0.25 |
| ENLE | ≤ 0.25 |
| TIRS | 0.31 |
| ACLL | 13.3 |
| RFNN | ≤ 0.25 |
| FANV | ≤ 0.25 |
| DKPC | ≤ 0.25 |
| RTDN | 3.33 |
| RPEL | ≤ 0.25 |
| DKDK | ≤ 0.25 |
| KCGL | ≤ 0.25 |

| Variant | enrichment ratio |
| --- | --- |
| DCNP | ≤ 0.25 |
| YQWM | ≤ 0.25 |
| ETIQ | ≤ 0.25 |
| IMGT | ≤ 0.25 |
| PIIC | ≤ 0.25 |
| WWDI | ≤ 0.25 |
| QLTI | 0.476 |
| LHCP | ≤ 0.25 |
| NTSY | ≤ 0.25 |
| NLAH | ≤ 0.25 |
| DSIT | ≤ 0.25 |
| TYLW | ≤ 0.25 |
| YMFE | ≤ 0.25 |
| SVGH | 6.05 |
| SATY | 12.7 |
| HATY | ≤ 0.25 |
| IAFI | ≤ 0.25 |
| HHGV | ≤ 0.25 |
| DCWH | ≤ 0.25 |
| VCRA | ≤ 0.25 |
| SEIC | 32.9 |
| WYEF | ≤ 0.25 |
| PTRM | ≤ 0.25 |
| FQIW | ≤ 0.25 |
| TVTF | 0.76 |

| Variant | enrichment ratio |
| --- | --- |
| FEFG | ≤ 0.25 |
| FMSD | ≤ 0.25 |
| RLYS | ≤ 0.25 |
| NMKQ | ≤ 0.25 |
| PMEH | ≤ 0.25 |
| MQTD | ≤ 0.25 |
| VLNR | ≤ 0.25 |
| AWLK | ≤ 0.25 |
| KTFN | ≤ 0.25 |
| WQHA | ≤ 0.25 |
| KYLD | ≤ 0.25 |
| EEDT | ≤ 0.25 |
| NMQK | ≤ 0.25 |
| VFYF | ≤ 0.25 |
| EFGQ | ≤ 0.25 |
| RMMC | ≤ 0.25 |
| NGLI | 2.73 |
| QELI | ≤ 0.25 |
| HVSS | ≤ 0.25 |
| WYIR | ≤ 0.25 |
| NRGM | ≤ 0.25 |
| VIYW | ≤ 0.25 |
| WYAM | ≤ 0.25 |
| NTPF | ≤ 0.25 |
| HFKT | ≤ 0.25 |

| Variant | enrichment ratio |
| --- | --- |
| LMID | ≤ 0.25 |
| HQWS | ≤ 0.25 |
| AHQS | ≤ 0.25 |
| RWWD | ≤ 0.25 |
| LAKL | ≤ 0.25 |
| LMQA | ≤ 0.25 |
| EAMY | ≤ 0.25 |
| WEYV | ≤ 0.25 |
| KIYY | ≤ 0.25 |
| IINW | ≤ 0.25 |
| DAGP | ≤ 0.25 |
| GDFM | ≤ 0.25 |
| VAKY | ≤ 0.25 |
| IYFG | ≤ 0.25 |
| NFVL | ≤ 0.25 |
| VVTP | ≤ 0.25 |
| LVLK | ≤ 0.25 |
| TKPV | ≤ 0.25 |
| DTWD | ≤ 0.25 |
| HFGG | ≤ 0.25 |
| YMFH | ≤ 0.25 |
| MQTI | ≤ 0.25 |
| DPDS | ≤ 0.25 |
| REAN | ≤ 0.25 |
| FMNE | ≤ 0.25 |

| Variant | enrichment ratio |
| --- | --- |
| DSNQ | ≤ 0.25 |
| VIAH | 6.06 |
| WTEW | ≤ 0.25 |
| QMCA | ≤ 0.25 |
| RWSR | ≤ 0.25 |
| FGES | ≤ 0.25 |
| HLKF | ≤ 0.25 |
| HKPN | ≤ 0.25 |
| LQTR | 3.24 |
| NAKC | ≤ 0.25 |
| EQIW | ≤ 0.25 |
| IVHT | ≤ 0.25 |
| NDVS | ≤ 0.25 |
| RLTP | ≤ 0.25 |
| CFYS | ≤ 0.25 |
| VHGY | ≤ 0.25 |
| HHAT | ≤ 0.25 |
| AQLP | ≤ 0.25 |
| ETYR | ≤ 0.25 |
| VRAL | ≤ 0.25 |
